Measured values published in a collection of fitness landscapes (doi:10.1016/j.celrep.2020.107928).
In all, about 81,000 sequences were measured (“one-hybrid fitness for binding NBS DNA”: median about -0.1, highest 2% from about 0.36 on). Some of the results follow.

B1: Caulobacter ParB omega fusion; a variant is named by its letters at X, in order, B8GW30 (parent)
chain: MESVVVGEPGMSEGRRGLGRGLSALLGEVDAAPAQAPGEQLGGSREAPIEILQRNPDQPRRTFREEDLEDLSNSIREKGVLQPILVRPSPDTAGEYQIVAGERAWRAAQRAGLKTVPIMVRELDDLAVLEIGIIENVQRADLNVLEEALSYKVLMEKFERTQENIAQTIGKSXSHVANXMRLLXLPDEVQSYLVSGELTAXHARAIAAAADPVALAKQIIEGGLSVRETEALARKAPNLSAGKSKGGRPPRVKDTDTQALESDLSSVLGLDVSIDHRGSTGTLTITYATLEQLDDLCNRLTRGI

Variants of: B1
Assay: one-hybrid fitness for binding NBS DNA (the Noc-binding site; scaled: cognate 1, non-cognate 0); higher = stronger binding
Settings: with NBS DNA site
Outline: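 Bacterial one-hybrid selection in E. coli USO rpoZ- hisB- pyrF- with a HIS3 reporter carrying the site 19 bp from the promoter, screening Caulobacter ParB libraries with four specificity codons randomised (NNS). Cells grew 48 hours at 37°C on M9-minus-histidine plus 0.1 mM IPTG and 5 mM 3-AT. Plasmids before and after selection were Illumina-sequenced, three replicate libraries pooled, and variants under 10 reads dropped. Fitness is the log change in variant-to-wild-type read ratio, rescaled to cognate 1, non-cognate 0.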

Variant | one-hybrid fitness for binding NBS DNA
NTEP | ≤ 0.2
GQTV | ≤ 0.2
HMVT | ≤ 0.2
RNVV | ≤ 0.2
YSRG | ≤ 0.2
AETF | ≤ 0.2
ITNV | ≤ 0.2
HPRW | ≤ 0.2
THIY | ≤ 0.2
LRSY | ≤ 0.2
TGDR | ≤ 0.2
IHER | ≤ 0.2
GVLS | ≤ 0.2
LRRS | 0.303
VATQ | ≤ 0.2
MEYY | ≤ 0.2
THIP | ≤ 0.2
SKPE | ≤ 0.2
SECF | ≤ 0.2
VRFL | ≤ 0.2
HELT | ≤ 0.2
TFKL | ≤ 0.2
YMSR | ≤ 0.2
RQQG | ≤ 0.2
PSLG | ≤ 0.2

Variant | one-hybrid fitness for binding NBS DNA
SRIW | ≤ 0.2
TSCT | ≤ 0.2
EHYS | ≤ 0.2
RLTD | ≤ 0.2
SGFM | ≤ 0.2
SNQY | ≤ 0.2
AFRA | ≤ 0.2
YSYC | ≤ 0.2
QMEC | ≤ 0.2
FTLM | ≤ 0.2
RREN | ≤ 0.2
AHNM | ≤ 0.2
QTSE | ≤ 0.2
SMLF | ≤ 0.2
TMVC | ≤ 0.2
RAFD | ≤ 0.2
CALR | ≤ 0.2
QGRK | ≤ 0.2
PNSN | ≤ 0.2
VLIV | ≤ 0.2
SVFG | ≤ 0.2
QCID | ≤ 0.2
VLER | ≤ 0.2
KQQR | ≤ 0.2
ANRR | ≤ 0.2

Variant | one-hybrid fitness for binding NBS DNA
TSVY | ≤ 0.2
LYMF | ≤ 0.2
DVST | ≤ 0.2
PPER | ≤ 0.2
LVMS | ≤ 0.2
PAWA | ≤ 0.2
KLAF | ≤ 0.2
MSFP | ≤ 0.2
CVNP | ≤ 0.2
AVDW | ≤ 0.2
QDSG | ≤ 0.2
QDTF | ≤ 0.2
IYMF | ≤ 0.2
PRQS | ≤ 0.2
TPSP | ≤ 0.2
ANPR | ≤ 0.2
GTHL | ≤ 0.2
LCAH | ≤ 0.2
QPWH | ≤ 0.2
IKRQ | ≤ 0.2
FGSA | ≤ 0.2
TVTQ | ≤ 0.2
PDLQ | ≤ 0.2
LSRM | ≤ 0.2
QWQV | ≤ 0.2

Variant | one-hybrid fitness for binding NBS DNA
QPVS | 0.202
MGNT | ≤ 0.2
NPQM | ≤ 0.2
TRYP | ≤ 0.2
TAIE | ≤ 0.2
ECHG | ≤ 0.2
KATT | ≤ 0.2
GISV | ≤ 0.2
PWGN | ≤ 0.2
RTTL | ≤ 0.2
AFES | ≤ 0.2
YTQP | ≤ 0.2
TLSS | ≤ 0.2
LRRI | ≤ 0.2
VGAT | ≤ 0.2
QQPE | ≤ 0.2
LVAE | ≤ 0.2
DVGP | ≤ 0.2
PAKS | ≤ 0.2
HIFL | ≤ 0.2
DWSM | ≤ 0.2
TMAW | ≤ 0.2
DFDR | ≤ 0.2
VSTW | ≤ 0.2
TDNV | ≤ 0.2

Variant | one-hybrid fitness for binding NBS DNA
QFHD | ≤ 0.2
SSCE | ≤ 0.2
LRPP | ≤ 0.2
LPKY | ≤ 0.2
QQGK | ≤ 0.2
PSKI | ≤ 0.2
GCEA | ≤ 0.2
DGSQ | ≤ 0.2
DFHT | ≤ 0.2
GRPL | ≤ 0.2
RQPF | ≤ 0.2
AAHR | ≤ 0.2
WTYL | ≤ 0.2
QTKE | 0.378
RQQL | ≤ 0.2
CNIY | ≤ 0.2
GNKV | ≤ 0.2
GMRY | ≤ 0.2
RQHT | 0.417
LRWS | ≤ 0.2
ELGD | ≤ 0.2
CRTW | ≤ 0.2
YFCR | ≤ 0.2
VGDT | ≤ 0.2
QCKI | 0.405

Variant | one-hybrid fitness for binding NBS DNA
CKCF | ≤ 0.2
QDFV | ≤ 0.2
TFPW | ≤ 0.2
CNNS | ≤ 0.2
QHRV | 0.378
VLTT | ≤ 0.2
PWLM | ≤ 0.2
SSPY | ≤ 0.2
FFRG | ≤ 0.2
HHLA | ≤ 0.2
NDIG | ≤ 0.2
QHWS | 0.263
TGWT | ≤ 0.2
CMKV | ≤ 0.2
RTEH | ≤ 0.2
ARNQ | ≤ 0.2
QVSM | ≤ 0.2
KRPM | ≤ 0.2
ARGR | ≤ 0.2
SIQC | ≤ 0.2
AQFG | ≤ 0.2
IFLF | ≤ 0.2
SLKV | ≤ 0.2
RYGC | ≤ 0.2
TFRS | ≤ 0.2

Variant | one-hybrid fitness for binding NBS DNA
STKL | ≤ 0.2
PSTQ | ≤ 0.2
HPPN | ≤ 0.2
LSRE | ≤ 0.2
GHSS | ≤ 0.2
NHRT | ≤ 0.2
SPTP | ≤ 0.2
NEAC | ≤ 0.2
THPD | ≤ 0.2
RHLC | ≤ 0.2
MPYL | ≤ 0.2
YRMN | ≤ 0.2
ERHM | ≤ 0.2
WSCE | ≤ 0.2
RMSA | ≤ 0.2
QVHP | ≤ 0.2
NNYR | ≤ 0.2
PFNP | ≤ 0.2
RYFW | ≤ 0.2
NSSF | ≤ 0.2
HLRP | ≤ 0.2
RTMM | ≤ 0.2
MVYS | ≤ 0.2
QAPR | 0.275
YSTW | ≤ 0.2

Variant | one-hybrid fitness for binding NBS DNA
QHNW | ≤ 0.2
FRMA | ≤ 0.2
TVKL | ≤ 0.2
DRLS | ≤ 0.2
NYAL | ≤ 0.2
CQKS | ≤ 0.2
IRGT | 0.23
IMSE | ≤ 0.2
RYDR | 0.207
SQDY | ≤ 0.2
HAST | ≤ 0.2
LQFE | ≤ 0.2
WSQC | ≤ 0.2
QTHG | 0.234
CFTP | ≤ 0.2
DIFL | ≤ 0.2
HYIG | ≤ 0.2
QYGG | ≤ 0.2
KTVQ | ≤ 0.2
LCGG | ≤ 0.2
